Test [1] relates to GT1-7. Nature of the test: Inhibition of scrapie form PrP production in mouse GT1-7 cells infected with human transmissible spongiform encephalopathies agent Chandler/RML.
For test [2], the system named is GT1-7. Nature of the test: Inhibition of scrapie form PrP production in mouse GT1-7 cells infected with human transmissible spongiform encephalopathies agent Fukuoka1 at 10 uM by Western blot.
The test system of test [3] is GT1-7. Nature of the test: Inhibition of scrapie form PrP production in mouse GT1-7 cells infected with bovine spongiform encephalopathy agent by Western blot.
Test [4] concerns GT1-7. As to the kind of experiment: Inhibition of scrapie form PrP production in mouse GT1-7 cells infected with human transmissible spongiform encephalopathies agent 22L.

This is an account of results in ChEMBL document CHEMBL1156484, “Hot spots in prion protein for pathogenic conversion” (Proc Natl Acad Sci U S A, 2007).

Calls of active or inactive are those of the source. The calls are words filed in the database; no cut-off is given here.

On to `O=C(CN1CCCC1)Nc1ccc(Cc2ccc(NC(=O)CN3CCCC3)cc2)cc1`, for which the outcome in test [1], in test [2] and in test [4] was Active. In addition, the outcome in test [3] was inactive.
